According to PubChem BioAssay AID1460 (National Center for Advancing Translational Sciences (NCATS), 2008):
About 5,800 (2.1%) of roughly 270,000 compounds were called active. Inconclusive results, whose numbers are uncertain, are shown with a selection of clear calls. Calls follow the shape of the dose curve; as a rule, active = well fitted inhibition curve with a large enough effect; inconclusive = small, poorly fitted or top-dose-only effect; inactive = flat fitted curve, though single readings scatter. Potencies beside an inconclusive call are fits to weak or partial responses and may not hold up.

Biological target: Microtubule-associated protein tau (Homo sapiens) (UniProt P10636)
Assay: qHTS for Inhibitors of Tau Fibril Formation, Thioflavin T Binding; also: nearly all actives have a fitted effect of over 55% in size
Settings: recombinant tau K18 P301L (four-repeat tau fragment), heparin-induced fibrillization, ThT fluorescence; series mostly up to 57.4 µM; activity, negative = inhibition: at the top concentration
Method in brief: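 Aggregation was driven by heparin (20 uM final) acting on recombinant tau […] bearing P301L in 100 mM sodium acetate pH 7; fibrils were detected with Thioflavin T.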
% is scaled to controls: 0 for no effect and ±100 for the full control effect; potency is read from the fitted curve at half-maximal effect; tags tell the direction and shape of the fitted curve.

Chain of UniProt P10636 (P10636 whole entry, looked up): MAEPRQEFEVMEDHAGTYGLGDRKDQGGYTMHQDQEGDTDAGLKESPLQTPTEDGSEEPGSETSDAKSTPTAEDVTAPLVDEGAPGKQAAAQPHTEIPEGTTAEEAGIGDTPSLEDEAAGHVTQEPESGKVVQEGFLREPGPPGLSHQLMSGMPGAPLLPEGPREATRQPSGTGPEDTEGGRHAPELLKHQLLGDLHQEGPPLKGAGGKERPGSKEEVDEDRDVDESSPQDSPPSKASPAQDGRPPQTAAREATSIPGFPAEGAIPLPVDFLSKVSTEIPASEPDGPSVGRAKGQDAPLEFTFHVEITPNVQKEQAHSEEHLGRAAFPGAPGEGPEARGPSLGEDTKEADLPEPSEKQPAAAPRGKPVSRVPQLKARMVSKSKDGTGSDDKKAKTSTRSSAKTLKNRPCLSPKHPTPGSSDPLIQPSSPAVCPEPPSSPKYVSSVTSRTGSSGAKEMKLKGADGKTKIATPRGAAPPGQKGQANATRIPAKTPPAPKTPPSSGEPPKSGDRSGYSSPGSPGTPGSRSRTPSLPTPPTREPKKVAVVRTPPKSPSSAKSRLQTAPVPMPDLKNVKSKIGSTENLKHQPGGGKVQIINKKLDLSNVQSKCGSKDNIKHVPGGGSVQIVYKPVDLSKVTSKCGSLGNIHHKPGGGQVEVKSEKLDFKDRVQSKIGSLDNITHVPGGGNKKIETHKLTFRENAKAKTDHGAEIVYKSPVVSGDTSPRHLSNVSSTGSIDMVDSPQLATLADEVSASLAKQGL

| SMILES | Potency | activity, negative = inhibition |
| --- | --- | --- |
| COc1ccccc1NC(=O)/C(C#N)=C/c1cc([N+](=O)[O-])ccc1N1CCCC1 | inconclusive: 17.8 µM [inhibitor, partial curve] |  |
| COc1ccc(S(=O)(=O)Nc2cc(C(=O)NCCC(C)C)ccc2N2CCOCC2)cc1 |  | inactive: -13.6% |
| Cc1ccc(C(=O)NC(=S)/C=C2\N(C)c3ccccc3C2(C)C)cc1 | active: 10 µM |  |
| CCOC(=O)N/N=C/c1c(F)cccc1F |  | inactive: 0.237% |
| O=C(c1ccc2c(Cl)c3c(nc2c1)CCCC3)N1CCN(c2ccc(Cl)cc2)CC1 | inconclusive: 0.141 µM [inhibitor, full curve, poor fit] |  |
| Cc1cc(C(F)F)n2nc(C(=O)Nc3sc4c(c3C#N)CCC4)nc2n1 | inconclusive: 14.1 µM [inhibitor, partial curve] |  |
| CC(=O)CC1(OC(C)=O)C(=O)N(C)c2ccccc21 (stereo unspecified) | inconclusive: 44.7 µM [inhibitor, single point] |  |
| O=C(/C=C/c1ccc(Cl)cc1Cl)NCCSCc1ccccc1 |  | inactive: -4.35% |
| CCOc1ccc(-c2nnc3ccc(SCC(=O)Nc4nc5ccc(C)cc5s4)nn23)cc1 |  | inactive: -6.7% |
| CC1Cc2ccccc2N1C(=O)CSc1nnc2c(n1)[nH]c1ccc(F)cc12 (stereo unspecified) | inconclusive: 8.91 µM [inhibitor, partial curve] |  |
| COc1ccccc1/C=C1\S/C(=N/NC(=O)c2cccc(Br)c2)NC1=O | active: 12.6 µM |  |
| COc1cc(-c2nc3sccn3c2Nc2c(C)cccc2C)ccc1O | active: 15.8 µM |  |
| Cc1cc(O)cc(C)c1Cl |  | inactive: -7.96% |
| Cc1ccc(-c2nc(CS(=O)CC(=O)NC3CCC(C)CC3)c(C)o2)cc1 (stereo unspecified) |  | inactive: -22.1% |
| Cn1ncc2c(N3CCN(c4ccc(F)cc4)CC3)ncnc21 | inconclusive: 5.62 µM [inhibitor, partial curve] |  |
| CCOc1ccc(CCn2c3c(c(=O)[nH]c2=O)C(NC(=O)c2cccc(F)c2)(C(F)(F)F)C(=O)N3)cc1OCC (stereo unspecified) |  | inactive: -2.24% |
| Cc1c(CCNC(=O)c2c(F)cccc2F)sc2nc(-c3ccc(F)cc3)nn12 |  | inactive: -0.812% |
| O=C(N/N=C/c1ccc([N+](=O)[O-])o1)C(=O)Nc1ccc(C(=O)O)cc1 | inconclusive: 39.8 µM [inhibitor, single point] |  |
| CCOC(=O)c1sc2ccccc2c1S(=O)(=O)NCc1ccccc1OC |  | inactive: -11.1% |
| O=[N+]([O-])c1cccc(/C=C/c2ccccn2)c1 | inconclusive: 10 µM [inhibitor, partial curve] |  |
| CCc1cc(=O)oc2cc(C)c(CN3CCCC(C)C3)c(O)c12 (stereo unspecified) | inconclusive: 11.2 µM [inhibitor, partial curve, poor fit] |  |
